Results reported in ChEMBL document CHEMBL4888484, “Replenishing the malaria drug discovery pipeline: Screening and hit evaluation of the MMV Hit Generation Library 1 (HGL1) against asexual blood stage Plasmodium falciparum ,using a nano luciferase reporter read-out” (2022).
Screen size: about 150,000 compounds; about 540 (0.36%) showed an effect of 50% or more. The list shows a part of the results.

tested on: Plasmodium falciparum; experiment: Primary screen in NF54 nanoGlo assay, in single point, at 2uM, 72h; a lower Z score goes with more inhibition; type: functional, Erythrocyte; settings: timepoint 72 hour

SMILES	% Inhibition [%]	Z score
O=C1CC[C@@]2(CCCN(c3ncnc4[nH]cnc34)C2)CN1CCc1c[nH]cn1	-24	2.53
Cc1noc(CC(=O)N2CCOCC2)n1	-29	3.38
CCc1cc(-c2nc(C[C@@]3(C)CC3(Cl)Cl)no2)n[nH]1	-3	0.38
CCN(CC)c1ncnc2sc(C(=O)Nc3cccc(C(F)(F)F)c3)c(C)c12	2	-0.35
Cc1ccc(C(=O)NS(=O)(=O)c2cc(S(=O)(=O)N(C)C)ccc2Cl)o1	-16	2.45
CCCn1ncc(C(=O)N2CCC23COC3)c1C1CC1	-2	0.28
CO[C@@]12CC[C@@H](O)C[C@@H]1N(Cc1cc(Cn3cncn3)c(C)cc1C)CC2	1	-0.09
O=C(N[C@H]1CCOC[C@@H]1OCC1CCC1)c1ccc(Cl)cc1F	-5	0.58
Cc1ncsc1C(=O)NCCOc1ccc(Cl)cn1	-9	1.04
Nc1cc(N2CCO[C@H](c3ccccc3)C2)c(Cl)cn1	-4	0.83
CC(C)(C)NC(=O)CNc1nnc(C2CC2)s1	30	-4.33
COc1ccc(CCNC(=O)CN(c2ccc(OCc3ccccc3)cc2)S(C)(=O)=O)cc1	-5	0.7
CCC(COC)NC(c1nc(C)no1)C(C)C (stereo not given)	-6	0.73
COC[C@H](C)NCc1cccc(C)c1C	-8	0.68
Cn1ccnc(N2CCN(C(=O)Cc3c[nH]c4ccccc34)CC2)c1=O	3	-0.49
C[C@]1(O)CCN(C(=O)c2cncc(Cl)c2)C[C@@H]1O	-26	2.76
CCCNC(=O)OC[C@H]1CCCCN1Cc1cncc(F)c1	4	-0.56
CCCc1noc(CN(CCC)CC(=O)OC)n1	-9	1.45
CNC(=O)[C@@]12CCOC[C@@H]1CN(C(=O)N[C@@H](C)c1cccc(O)c1)C2	-7	0.96
CC1CCN(CCCNCc2cc3ccccc3o2)CC1	-1	0.15
CC1(C)CCCN1C(=O)Nc1cccc(-c2nnc3n2CCC3)c1	-2	0.36
CCn1cc(CN(Cc2ccc(CC3CCN(C)CC3)cc2)C2CC2)c(C)n1	5	-0.89

SMILES	% Inhibition [%]	Z score
CCOc1ccccc1C(=O)NC[C@@H]1CN(C)C(=O)[C@H](c2ccccc2)N1C	-9	1.26
Cn1ncc2ccc(-c3noc(C(=O)Nc4ccccc4)n3)cc21	-2	0.43
O=C(O)CCN(CCc1ccccc1)Cc1cc2ccccc2o1	-5	0.77
Cc1cnn(CCNCc2cccc3nccn23)c1	-18	1.6
Cc1ccc(S(=O)(=O)N2C[C@@H]3CC[C@H]2CN(C)C3)cc1F	-16	1.53
CN(C)S(=O)(=O)N1C[C@H]2CC[C@@H](C1)N(Cc1nccs1)C2	-1	0.13
Cc1cc(=O)[nH]c(NCCNC(=O)c2cc(C(C)C)oc2C)n1	-13	2.6
CC(C)NC(=O)[C@H]1O[C@H](CCN2CCN(c3ccccc3)CC2)CC[C@@H]1O	-5	0.63
CCn1nc(C)c(CN2CCC(CCOC)(c3noc(-c4cccnc4)n3)CC2)c1C	-9	1.15
CN1CCNC(=O)C[C@@H]2CN(Cc3cccc(Cl)c3F)C[C@@H]2n2cc(nn2)Cn2cccc(c2=O)C1=O	-12	2.31
CCNc1ccnc(NCCn2nc(C)c(C)c2C)n1	-6	0.79
O=S(=O)([N-]c1nc2ccccc2nc1-[n+]1ccccc1)c1cccs1	2	-0.27
CC(C(=O)N1CCCc2ccccc21)S(=O)(=O)CC1CCCO1 (stereo not given)	3	-0.33
CN1C(=O)[C@@H]2CC[C@H]1CN(S(=O)(=O)Cc1cc(F)ccc1Cl)C2	1	-0.15
O=C(c1ccco1)N(CC1CCN(C2Cc3ccccc3C2)CC1)C[C@H]1CCCO1	-7	1.09
CCOc1ccc(NS(=O)(=O)c2cc(-c3c(CC)nn4c3NC(=O)CCC4=O)ccc2OC)cc1	3	-0.35
O=C(CNc1ccn(CC(F)(F)F)n1)Nc1cccc(Cl)c1Cl	-2	0.25
Cc1ccc(Cn2cccc2C(=O)C(=O)Nc2ccccc2)cc1C	-16	1.52
CCN1CCCc2cc(C(=O)NCc3ccccc3OC)sc21	-8	1.49
O=C1COc2ccc(S(=O)(=O)N3CCC[C@H]3C(=O)Nc3cccc(Cl)c3)cc2N1	-7	1.2
O=C(Cc1cccs1)Nc1ccc2c(c1)OCCCO2	-3	0.56
Cc1cccc(-c2nn(-c3ccccc3)c3nc(OCC(=O)Nc4ccccc4)cc(C)c23)c1	-10	1.28

SMILES	% Inhibition [%]	Z score
Cc1[nH]ncc1CNC(=O)c1cc2n(n1)C[C@@H](c1ccc(F)cc1)OC2	-10	1.12
NC(=O)c1ccccc1NC(=O)CN1CCC[C@H](C(=O)c2ccc(F)cc2)C1	1	-0.13
COc1ccc(OC)c(S(=O)(=O)Nc2ccc(-c3nc4ccc(C)cc4s3)cc2)c1	-12	1.48
CC[C@H]1COCCN1C(=O)c1c[nH]c2ncccc12	32	-3.58
Cc1ccc(CNC(=O)c2cnc3c(c2)ncn3C)c(C)c1	-19	1.66
C=C(C)c1nc(C#N)c(NC2CCCC2)o1	-3	0.38
C/C=C(\C)CN(C)CCn1cc(C(=O)NCc2ccncc2)nn1	-12	2
CCCc1cc(CN(C)[C@H]2CN(Cc3nc4ccccc4n3C)C[C@@H]2O)n[nH]1	-7	0.95
CCn1ncc(-c2noc3nc(C4CC4)cc(C(=O)Nc4nn(C)cc4Cl)c23)c1C	28	-3.15
O=C1NC2(CCN(C(=O)c3ccoc3C(F)(F)F)CC2)CO1	-19	3.05
COc1ccc(N2CCN(c3nc(C(=O)NC(C)C)cs3)CC2)cc1	-4	0.54
O=c1[nH]c(NCCc2ccccc2)nc2c1CN(Cc1ccccc1)CC2	6	-0.97
C#CCCOC(=O)c1cnc(CCC)s1	-7	1.07
Cc1sc(-c2ccno2)cc1S(=O)(=O)N(C)Cc1ncon1	3	-0.48
COc1ccc([C@@H]2CC(c3nc4ccccc4[nH]3)=NN2C(=O)CCN2CCCCC2)cc1	-5	0.67
O=C(c1ccc2[nH]ccc2c1)N1C2CCC1CC(n1ccnc1)C2 (stereo not given)	-12	1.5
CC(=O)Nc1ncc(S(=O)(=O)NCC2(c3ccc(F)cc3)CC2)s1	0	0.06
O=S(=O)(NC1CCCCC1)c1ccc2ccccc2c1	0	0.02
CCNS(=O)(=O)CCNC(=O)C[C@H](C)c1cccc(F)c1	-7	0.59
COC(=O)c1ccc(Cl)c(CN2CCC(c3nnc[nH]3)CC2)c1	-8	1.07
CC(C)n1cc(Br)cc1C(=O)N1CCO[C@H](C(N)=O)C1	-5	0.62
N#Cc1cc(F)ccc1CN1C(=O)CN(C2CCCC2)C1=O	-16	1.57

SMILES	% Inhibition [%]	Z score
Cc1ccc([C@H]2CCN(CCCS(N)(=O)=O)C2)c(C)c1	-3	0.38
Cc1ccc(-c2ncccc2C#N)c2cccnc12	-3	0.61
CC(C)c1nnnn1[C@H]1CO[C@H]2[C@@H]1OC[C@H]2OC(=O)Nc1cccc(C#N)c1	0	-0.05
CCN(C)C(=O)N1CCC2(C1)OCCO2	25	-2.87
COc1cccc([C@@H]2CCN2C(=O)Nc2nc(C3CCCCC3)n[nH]2)c1	7	-0.91
COc1ccc(OC)c(C(=O)N2CCN(C)Cc3ccccc32)c1	-5	0.46
C[C@@H](c1ccc(-c2cnc3scnc3c2)cc1)N(C)C	-16	2.96
C1=CC2CCC1CC2CNCc1ccccc1 (stereo not given)	-6	1.03
COc1cccc(CN2CCCn3cccc3[C@H]2c2cc(C)ccc2C)c1	-1	0.13
Cc1ccc2c(=O)c(C(=O)N3CCCC3)cn(CC(=O)NCc3ccc(F)cc3)c2n1	-10	1.4
CC[C@H]1CC[C@H](NC(=O)N(C)Cc2nnc(C)s2)CC1	-13	2.42
C[C@H](Oc1ccccc1)C(=O)N(C)c1nc2ccccc2n1C	0	-0.03
NC(=O)N1CCC(NC(=O)[C@@H](O)Cc2ccccc2)C1 (stereo not given in full)	-5	0.67
Cn1ccc([C@@H]2CCCCCN2S(=O)(=O)N2CCCC2)n1	-8	1.12
CC1CN(C(=O)NCC2CCN(c3ccccc3F)C2)CC[S+]([O-])C1 (stereo not given)	5	-0.8
CC1CC(C)(C)CC(CO)(NCC(=O)NCc2ccco2)C1 (stereo not given)	-8	0.85
Cc1ccc(-c2csc(-n3nc(NS(=O)(=O)c4ccc(C)cc4)nc3N)n2)cc1	29	-3.28
CN1c2ncccc2CN(Cc2ccc(Cl)cc2)CC[C@H]1CO	-5	0.82
COc1ccc(-c2cc(C(=O)N3CCC(NC(=O)c4ccc5c(c4)OCO5)CC3)[nH]n2)cc1	-21	2.41
